# Some results were stated once for a whole list of compounds, not compound by compound. At least one compound was matched to its structure with a doubt left.
# Target: T1, α7 nAChR (Homo sapiens, UniProt P36544)
# T1 construct: human IMR-32 cells with native expression of α7 nAChR; endogenous in cells; host or cells: human IMR-32 cells
# Experiment: cell-based real-time kinetic FLIPR Ca2+ assay, potentiation of agonist response (fold PAM activity)
# Details: 1 μM test compound, agonist PNU-282987, 10 μM, human IMR-32 cells with native expression of α7 nAChR, intracellular Ca2+
# T1 sequence (P36544 23-502): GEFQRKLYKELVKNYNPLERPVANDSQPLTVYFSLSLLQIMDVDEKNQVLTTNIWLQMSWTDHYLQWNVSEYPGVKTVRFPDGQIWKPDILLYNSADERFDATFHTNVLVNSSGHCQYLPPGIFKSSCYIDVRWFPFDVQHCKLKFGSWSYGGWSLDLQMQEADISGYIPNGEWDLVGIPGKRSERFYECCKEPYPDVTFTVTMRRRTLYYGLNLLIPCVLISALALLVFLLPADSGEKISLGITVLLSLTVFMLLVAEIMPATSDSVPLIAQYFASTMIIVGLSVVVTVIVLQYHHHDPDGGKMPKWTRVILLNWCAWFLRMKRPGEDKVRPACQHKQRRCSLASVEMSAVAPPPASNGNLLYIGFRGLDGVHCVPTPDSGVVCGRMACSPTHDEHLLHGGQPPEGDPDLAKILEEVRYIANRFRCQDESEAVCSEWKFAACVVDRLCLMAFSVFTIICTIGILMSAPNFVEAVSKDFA
row,SMILES,Fold activation at 1 μM conc. (Group)
1,"NS(=O)(=O)c1ccc(-c2sc(C(=O)C3CCCC3)nc2-c2ccc(Cl)cc2)cc1 [Compound 1, 4-(4-(4-chlorophenyl)-2-(cyclopentanecarbonyl)thiazol-5-yl)benzenesulfonamide]",A (compounds with activity between 1 to 5 folds are grouped as A)
2,"NS(=O)(=O)c1ccc(-c2sc(C(=O)C3CCCC3)nc2-c2ccc(Cl)cc2)c(F)c1 [Compound 2, 4-(4-(4-chlorophenyl)-2-(cyclopentanecarbonyl)thiazol-5-yl)-3-fluorobenzenesulfonamide]",A (compounds with activity between 1 to 5 folds are grouped as A)
3,"NS(=O)(=O)c1ccc(-c2sc(C(=O)c3ccccn3)nc2-c2ccc(Cl)cc2)cc1 [Compound 3, 4-(4-(4-chlorophenyl)-2-picolinoylthiazol-5-yl)benzenesulfonamide]",B (the compounds with activity between 5.1 folds and 15 folds are grouped as B)
4,"NS(=O)(=O)c1ccc(-c2sc(C(=O)c3cccnc3)nc2-c2ccc(Cl)cc2)cc1 [Compound 4, 4-(4-(4-chlorophenyl)-2-nicotinoylthiazol-5-yl)benzenesulfonamide]",A (compounds with activity between 1 to 5 folds are grouped as A)
5,"CC(C)(C(=O)C1CC1)c1nc(-c2ccc(Cl)cc2)c(-c2ccc(S(N)(=O)=O)cc2F)s1 [Compound 5, 4-(4-(4-chlorophenyl)-2-(1-cyclopropyl-2-methyl-1-oxopropan-2-yl)thiazol-5-yl)-3-fluorobenzenesulfonamide]",A (compounds with activity between 1 to 5 folds are grouped as A)
6,"CC(C)(C(=O)C1CC1)c1nc(-c2ccc(Cl)cc2)c(-c2ccc(S(N)(=O)=O)cc2)s1 [Compound 6, 4-(4-(4-chlorophenyl)-2-(1-cyclopropyl-2-methyl-1-oxopropan-2-yl)thiazol-5-yl)benzenesulfonamide]",A (compounds with activity between 1 to 5 folds are grouped as A)
7,"NS(=O)(=O)c1ccc(-c2sc(C3(C(=O)C4CC4)CC3)nc2-c2ccc(Cl)cc2)c(F)c1 [Compound 7, 4-(4-(4-chlorophenyl)-2-(1-(cyclopropanecarbonyl)cyclopropyl)thiazol-5-yl)-3-fluorobenzenesulfonamide]",C (the compounds with activity above 15 folds are grouped as C)
8,"NS(=O)(=O)c1ccc(-c2sc(CC3CCCC3=O)nc2-c2ccc(Cl)cc2)cc1 (stereo not drawn) [Compound 8, 4-(4-(4-chlorophenyl)-2-((2-oxocyclopentyl)methyl)thiazol-5-yl)benzenesulfonamide]",A (compounds with activity between 1 to 5 folds are grouped as A)
9,"NS(=O)(=O)c1ccc(-c2sc(CC3CCCC3=O)nc2-c2ccc(Cl)cc2)c(F)c1 (stereo not drawn) [Compound 9, 4-(4-(4-chlorophenyl)-2-((2-oxocyclopentyl)methyl)thiazol-5-yl)-3-fluorobenzenesulfonamide]",C (the compounds with activity above 15 folds are grouped as C)
10,"NS(=O)(=O)c1ccc(-c2sc(CC(=O)N3CC4CC4C3)nc2-c2ccc(Cl)cc2)cc1 (stereo not drawn) [Compound 10, 4-(2-(2-(3-azabicyclo[3.1.0]hexan-3-yl)-2-oxoethyl)-4-(4-chlorophenyl)thiazol-5-yl)benzenesulfonamide]",C (the compounds with activity above 15 folds are grouped as C)
11,"C[C@@H]1CN(C(=O)Cc2nc(-c3ccc(Cl)cc3)c(-c3ccc(S(N)(=O)=O)cc3)s2)C[C@H](C)O1 [Compound 11, (cis)-4-(4-(4-chlorophenyl)-2-(2-(2,6-dimethylmorpholino)-2-oxoethyl)thiazol-5-yl)benzenesulfonamide]",A (compounds with activity between 1 to 5 folds are grouped as A)
12,"NS(=O)(=O)c1ccc(-c2sc(CC(=O)N3CCCC3)nc2-c2ccc(Cl)cc2)cc1 [Compound 12, 4-(4-(4-chlorophenyl)-2-(2-oxo-2-(pyrrolidin-1-yl)ethyl)thiazol-5-yl)benzenesulfonamide]",B (the compounds with activity between 5.1 folds and 15 folds are grouped as B)

# Reference: US20150299178A1, “Thiazole Derivatives as Alpha 7 NACHR Modulators” (LUPIN LIMITED, priority 2012, published 2015)
